Assay results taken from PMC9911399, “Two distinct binding modes provide the RNA-binding protein RbFox with extraordinary sequence specificity”.
Changes are numbered by the printed parent chain; changes in the protein carry UniProt numbers. This is one part of the list.

T1: RBFOX1 RRM RbFoxmut (Fox-RRM*) (Homo sapiens, UniProt Q9NWB1 109-208, R118D;E147R;N151S;E152T)
T1 sequence: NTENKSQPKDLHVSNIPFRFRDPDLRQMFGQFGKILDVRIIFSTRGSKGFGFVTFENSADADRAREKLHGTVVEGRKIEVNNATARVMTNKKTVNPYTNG

B1: UUUUGUU (DNA:RNA)
RNA: GGGAGACCGGAAUUCAGAUUGUCCUUUUGUUUUAAAUCCCGUCGUAGCCACCA
DNA 1: CAATCTGAATTCCGGTCTCCC
DNA 2: TGGTGGCTACGACGGGATT
B2: CGCUGCC (DNA:RNA)
RNA: B1 RNA with U25C, U26G, U27C, U30C, U31C
DNA 1: CAATCTGAATTCCGGTCTCCC
DNA 2: TGGTGGCTACGACGGGATT
B3: GUCCCGC (DNA:RNA)
RNA: B1 RNA with U25G, U27C, U28C, G29C, U30G, U31C
DNA 1: CAATCTGAATTCCGGTCTCCC
DNA 2: TGGTGGCTACGACGGGATT
B4: CGUUCGU (DNA:RNA)
RNA: B1 RNA with U25C, U26G, G29C, U30G
DNA 1: CAATCTGAATTCCGGTCTCCC
DNA 2: TGGTGGCTACGACGGGATT
B5: CUGCAAU (DNA:RNA)
RNA: B1 RNA with U25C, U27G, U28C, G29A, U30A
DNA 1: CAATCTGAATTCCGGTCTCCC
DNA 2: TGGTGGCTACGACGGGATT
B6: AGGCCAG (DNA:RNA)
RNA: GGGAGACCGGAAUUCAGAUUGUCCAGGCCAGUUAAAUCCCGUCGUAGCCACCA
DNA 1: CAATCTGAATTCCGGTCTCCC
DNA 2: TGGTGGCTACGACGGGATT
B7: GCUGCCA (DNA:RNA)
RNA: B6 RNA with A25G, G26C, G27U, C28G, A30C, G31A
DNA 1: CAATCTGAATTCCGGTCTCCC
DNA 2: TGGTGGCTACGACGGGATT
B8: CGCAAUA (DNA:RNA)
RNA: B6 RNA with A25C, G27C, C28A, C29A, A30U, G31A
DNA 1: CAATCTGAATTCCGGTCTCCC
DNA 2: TGGTGGCTACGACGGGATT
B9: AUAGCUG (DNA:RNA)
RNA: B6 RNA with G26U, G27A, C28G, A30U
DNA 1: CAATCTGAATTCCGGTCTCCC
DNA 2: TGGTGGCTACGACGGGATT
B10: UAUAGAC (DNA:RNA)
RNA: B1 RNA with U26A, U28A, U30A, U31C
DNA 1: CAATCTGAATTCCGGTCTCCC
DNA 2: TGGTGGCTACGACGGGATT
B11: GUGUUGU (DNA:RNA)
RNA: B1 RNA with U25G, U27G, G29U, U30G
DNA 1: CAATCTGAATTCCGGTCTCCC
DNA 2: TGGTGGCTACGACGGGATT
B12: AGUCUAA (DNA:RNA)
RNA: B6 RNA with G27U, C29U, G31A
DNA 1: CAATCTGAATTCCGGTCTCCC
DNA 2: TGGTGGCTACGACGGGATT
B13: AUAUCUG (DNA:RNA)
RNA: B6 RNA with G26U, G27A, C28U, A30U
DNA 1: CAATCTGAATTCCGGTCTCCC
DNA 2: TGGTGGCTACGACGGGATT
B14: UCUCAGA (DNA:RNA)
RNA: B1 RNA with U26C, U28C, G29A, U30G, U31A
DNA 1: CAATCTGAATTCCGGTCTCCC
DNA 2: TGGTGGCTACGACGGGATT
B15: AGUGACG (DNA:RNA)
RNA: B6 RNA with G27U, C28G, C29A, A30C
DNA 1: CAATCTGAATTCCGGTCTCCC
DNA 2: TGGTGGCTACGACGGGATT
B16: UACGGCA (DNA:RNA)
RNA: B1 RNA with U26A, U27C, U28G, U30C, U31A
DNA 1: CAATCTGAATTCCGGTCTCCC
DNA 2: TGGTGGCTACGACGGGATT
B17: GGCUAAC (DNA:RNA)
RNA: B6 RNA with A25G, G27C, C28U, C29A, G31C
DNA 1: CAATCTGAATTCCGGTCTCCC
DNA 2: TGGTGGCTACGACGGGATT
B18: GCUCGAU (DNA:RNA)
RNA: B1 RNA with U25G, U26C, U28C, U30A
DNA 1: CAATCTGAATTCCGGTCTCCC
DNA 2: TGGTGGCTACGACGGGATT
B19: AACCUAA (DNA:RNA)
RNA: B6 RNA with G26A, G27C, C29U, G31A
DNA 1: CAATCTGAATTCCGGTCTCCC
DNA 2: TGGTGGCTACGACGGGATT
B20: AAUUUGU (DNA:RNA)
RNA: B1 RNA with U25A, U26A, G29U, U30G
DNA 1: CAATCTGAATTCCGGTCTCCC
DNA 2: TGGTGGCTACGACGGGATT
B21: GUGUCGG (DNA:RNA)
RNA: B6 RNA with A25G, G26U, C28U, A30G
DNA 1: CAATCTGAATTCCGGTCTCCC
DNA 2: TGGTGGCTACGACGGGATT
B22: CUGCGUG (DNA:RNA)
RNA: B6 RNA with A25C, G26U, C29G, A30U
DNA 1: CAATCTGAATTCCGGTCTCCC
DNA 2: TGGTGGCTACGACGGGATT
B23: ACAGACC (DNA:RNA)
RNA: B6 RNA with G26C, G27A, C28G, C29A, A30C, G31C
DNA 1: CAATCTGAATTCCGGTCTCCC
DNA 2: TGGTGGCTACGACGGGATT
B24: GGCUGUC (DNA:RNA)
RNA: B1 RNA with U25G, U26G, U27C, U31C
DNA 1: CAATCTGAATTCCGGTCTCCC
DNA 2: TGGTGGCTACGACGGGATT
B25: CAGAGAU (DNA:RNA)
RNA: B6 RNA with A25C, G26A, C28A, C29G, G31U
DNA 1: CAATCTGAATTCCGGTCTCCC
DNA 2: TGGTGGCTACGACGGGATT
B26: UUGAACG (DNA:RNA)
RNA: B6 RNA with A25U, G26U, C28A, C29A, A30C
DNA 1: CAATCTGAATTCCGGTCTCCC
DNA 2: TGGTGGCTACGACGGGATT
B27: GGGCCUG (DNA:RNA)
RNA: B6 RNA with A25G, A30U
DNA 1: CAATCTGAATTCCGGTCTCCC
DNA 2: TGGTGGCTACGACGGGATT
B28: UUAUGCU (DNA:RNA)
RNA: B1 RNA with U27A, U30C
DNA 1: CAATCTGAATTCCGGTCTCCC
DNA 2: TGGTGGCTACGACGGGATT
B29: CACGUUC (DNA:RNA)
RNA: B1 RNA with U25C, U26A, U27C, U28G, G29U, U31C
DNA 1: CAATCTGAATTCCGGTCTCCC
DNA 2: TGGTGGCTACGACGGGATT
B30: GGUGUAU (DNA:RNA)
RNA: B6 RNA with A25G, G27U, C28G, C29U, G31U
DNA 1: CAATCTGAATTCCGGTCTCCC
DNA 2: TGGTGGCTACGACGGGATT
B31: AAAGCGC (DNA:RNA)
RNA: B6 RNA with G26A, G27A, C28G, A30G, G31C
DNA 1: CAATCTGAATTCCGGTCTCCC
DNA 2: TGGTGGCTACGACGGGATT

molecular target: T1, RBFOX1 RRM RbFoxmut (Fox-RRM*); assay: EMSA; HiTS-Eq, 1 nM pool, 10 min; buffer printed only for the single-RNA assays: 10 mM Tris pH 7.5, 150 mM NaCl, 3.4 mM EDTA, 0.001% NP-40, 30 C; settings: tags: His6 N-terminal (pET28a); label: 5' 32P
Summary of the method: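 Relative association constants, normalised to the cognate motif, were derived by comparing read counts of each RNA species with those of the control reaction. The RNA sequenced was the free fraction, separated by 8% native PAGE after a 10 min equilibration in 50 µL of 1 nM 5′-radiolabelled RNA (7 randomized nucleotides) with increasing concentrations of purified wild-type or mutant RbFox RRM.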

Row | Binder | binding signal
1 | B1 | 0.107 KA relative to UGCAUGU
2 | B2 | 0.324 KA relative to UGCAUGU
3 | B3 | 0.0784 KA relative to UGCAUGU
4 | B4 | 0.15 KA relative to UGCAUGU
5 | B5 | 0.0574 KA relative to UGCAUGU
6 | B6 | 0.104 KA relative to UGCAUGU
7 | B7 | 0.0957 KA relative to UGCAUGU
8 | B8 | 0.114 KA relative to UGCAUGU
9 | B9 | 0.107 KA relative to UGCAUGU
10 | B10 | 0.0686 KA relative to UGCAUGU
11 | B11 | 0.181 KA relative to UGCAUGU
12 | B12 | 0.0901 KA relative to UGCAUGU
13 | B13 | 0.086 KA relative to UGCAUGU
14 | B14 | 0.0817 KA relative to UGCAUGU
15 | B15 | 0.102 KA relative to UGCAUGU
16 | B16 | 0.111 KA relative to UGCAUGU

Row | Binder | binding signal
17 | B17 | 0.078 KA relative to UGCAUGU
18 | B18 | 0.0915 KA relative to UGCAUGU
19 | B19 | 0.0948 KA relative to UGCAUGU
20 | B20 | 0.0863 KA relative to UGCAUGU
21 | B21 | 0.111 KA relative to UGCAUGU
22 | B22 | 0.232 KA relative to UGCAUGU
23 | B23 | 0.0708 KA relative to UGCAUGU
24 | B24 | 0.211 KA relative to UGCAUGU
25 | B25 | 0.0945 KA relative to UGCAUGU
26 | B26 | 0.39 KA relative to UGCAUGU
27 | B27 | 0.297 KA relative to UGCAUGU
28 | B28 | 0.13 KA relative to UGCAUGU
29 | B29 | 0.0608 KA relative to UGCAUGU
30 | B30 | 0.12 KA relative to UGCAUGU
31 | B31 | 0.0705 KA relative to UGCAUGU
